Measurements as given in the supplement of paper PMC11417369.
The list shows a part of the results.

What follows are sequences tested on PfAP2-HC AP2 domain (GST-tagged) (assay: gcPBM binding intensity (ln(normalized median fluorescence intensity)); higher = stronger DNA binding).
Procedure, shortened: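 An Agilent 4 × 180k array of primer-extended double-stranded 36-bp intergenic genomic probes, with negative controls, was incubated for 1 h with GST-tagged P. falciparum DNA-binding domains expressed in E. coli. Alexa488 anti-GST antibody detected bound protein, scanned at 488 nm. Binding intensity is the highest Masliner-normalised natural-log median intensity across replicate spots of either probe orientation.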

Sequence	gcPBM binding intensity (ln)
CATAATAATAGAAACACACACACATAGACATATATA [CACACA_site1308]	10.7
CATATATAACCTATAGCACACATATATAATATATAT [CACACA_site8544]	9.86
TAAAATATAGAAAATTTTATTAAATATAAAAAAATA [CACACA_negctrl_site1441]	9.53
GCATATCTATTTTCACGTACACAAACATGTATATAT [XGTACX_site3722]	9.95
ATATTACATATGTGCTGTACGCAATATATTATATCT [XGTACX_site1520]	9.92
AAGAACTTTAATAAGTGTACATTTATTGGAAACATG [XGTACX_site2995]	9.65
TTATATAAACACCAACGTACGTTCATTTAACATAAC [XGTACX_site5250]	9.77
TATATATATATATATTGTACATATGTGGTATAAATG [XGTACX_site6108]	9.93
AAAAATTAAAATATTATAGTTGAAACTTTTATAAAT [TGCATGCA_negctrl_site454]	9.19
TTTCTCTTCTAAACATGTACAAAAATACATACATAT [XGTACX_site1365]	9.76
TATATTTATTCCTGTTGTACTTTATATTATTTTTTT [XGTACX_site1415]	9.9
ATATATATATATATATGTACATACATACATAGAACT [XGTACX_site2214]	10.1
TCCCATTTATTATGGTGTACAATTAATTAAACATAA [XGTACX_site750]	9.41
TATAATATTAATGACTGTACTCATACGTATATTTAT [XGTACX_site5493]	9.76
TTTAATTTATATTTTGTGCACATCTTATTATATATA [GTGCAC_site9630]	9.88
AATTTTGTTTAGCACACACACATACATACATACATA [CACACA_site5707]	10.2
CCCATTTTGACAAAAAGTACAAGTTCAGGTTTTATA [XGTACX_site1532]	9.39
TATATTATTTTATATTGTACATACCAAATATTATAT [XGTACX_site1693]	9.54
CATGTGATAATGATTAGTACATAAACAAAAATATAT [XGTACX_site5866]	9.82
AGAAAAATAAACAAATGTACAAATTATTACTATATA [XGTACX_site1087]	9.77
ACATATTAATTATTATGACATACATATCAGTTATTA [TGCATGCA_negctrl_site126]	9.61
TTTATTTATATAATTACACACATATATACGCAAATG [CACACA_site2794]	9.73

Sequence	gcPBM binding intensity (ln)
TTTTATTCATTAATTTGTACTTATCCTTTTGCTTAA [XGTACX_site1243]	9.67
TCATTAATTAAATCTTGTACATATTCATATATATAT [XGTACX_site2241]	9.88
AAAGTATAGATGTATACACACACCAAACGTTAAAAA [CACACA_site3081]	10.1
TAAGCCAAGGGATAAATAAAATAACAAAATGAAATC [GTGCAC_negctrl_site601]	9.61
TAGTATCAATCTTATACATGCATAAAATAATTATAA [TGCATGCA_site1052]	9.53
GTGTTCTTGTTATACACACACATATTTATATTTATA [CACACA_site6615]	10
ACATTATGCCATAAATGTACACATACATATACACAG [XGTACX_site1330]	9.66
TAACTAAGGAATAATACACACAGAAATATATATTTA [CACACA_site344]	10
GATGATGTTACTTAAGTGCATATAAATTATATTTTA [GTGCAC_site9940]	9.52
AAATATATTATAAATTGTACGTTTATATATATTATT [XGTACX_site5110]	9.58
TAAAGTTTTTTTTTAACACACACATAATAAAATAAA [CACACA_site8042]	9.9
TAAAAAAATAAAAAAAAAAAATTATAAAATTATATA [GTGCAC_negctrl_site302]	9.4
GACACATATAAATATTAACACACATAATGAATTATA [CACACA_site8881]	9.93
TTATGTATTCATAACACATGCAAATAGGATCATATA [TGCATGCA_site731]	9.58
CGTTAGAGGGCTTTATCACACATGAAAAAAAAAAAA [CACACA_site5155]	9.24
CACACGCACAGACACACACACACATATAAATATGTA [CACACA_site6300]	10.6
ATATGATTTCACAAGACACACACATACAAATTTATA [CACACA_site9296]	10.1
TACAACATATTCAAATGTACAAATATAGGAATGAAA [XGTACX_site2730]	9.79
AGCGTATTATACTGACGTACATTTTATGTAACTCCA [XGTACX_site2715]	9.55
AACATAAAATGGATATGTACATAAAAATATATACTC [XGTACX_site7775]	10.1
AAAATTAAAGTAAGGACACACATATATAATACATAT [CACACA_site823]	9.99
TACACCAAAAAAAAACGTACAAAATCCCACCCAGAC [XGTACX_site4622]	11.1

Sequence	gcPBM binding intensity (ln)
AAAAAAAAAAAAAACACACACAAATTTAATATATAT [CACACA_site1695]	10.7
TATATATATAACAACACACACAGATCATAAAACTGC [CACACA_site2161]	10.2
TATATTTATTTTAACACACACATATATATATTATAT [CACACA_site4729]	10
TCCCAAGGAGTAGGCACACATAAAATATTATACATA [CACACA_site717]	9.68
ATAAAAAAAAAAAAAAAATATATATATATATATATA [XGTACX_negctrl_site424]	9.37
TTATTTTTATTATTTTGTATATATATTTATAGAAAA [XGTACX_negctrl_site465]	9.28
TGTAATAACGTTATAAAAAGTATAAAAAAAAAAAAA [CACACA_negctrl_site943]	9.57
TATATACTTTTTAATCACACTTCTTTAAAAAAAGTA [CACACA_negctrl_site1380]	9.28
TTTTAGGTCTGAATGTGTACTAAATAATATAAGTAT [XGTACX_site6554]	9.53
TACCTAATATGTTATACACACATTAGAAGTACATAT [CACACA_site5375]	9.78
CAAAATTTTTATAAGTCACACATTATCTAAGCTTAT [CACACA_site5747]	9.55
AATAAATAAATAAATTAATAAATTAATAAATTAATA [GTGCAC_negctrl_site37]	9.54
CACACAAAGGAATATACACACATATTTATATTTATA [CACACA_site7841]	9.91
ATCTATTTGTAAAGGGTGCGCATATCAATAAAAAAT [GTGCAC_site9503]	9.75
GTATATAATTTTTTATGTACTAAATTATATGTTTTT [XGTACX_site4907]	9.74
TATACCTTTGCGTGTGCATGCGCTTATATATATTTT [TGCATGCA_site152]	10.1
TTTATGTGTATGTTTACACACATAAAAAAATATATG [CACACA_site3039]	9.72
TATTTTTAATATTTTGCATGCAGTATTTTATAAAAT [TGCATGCA_site250]	9.52
ACAATTCCCGTATGATGTACTTTTTTCCACTTTTTC [XGTACX_site1811]	9.94
TACTAACATAAAGACACACACCACATAAAATAAATA [CACACA_site7663]	10.3
CTTATTTTGTTATAAGTGCATTTTTTAAAATTTCTT	9.55
ATAGTATACAGACACACACACACACCGATATATATA [CACACA_site8511]	10.7

Sequence	gcPBM binding intensity (ln)
GGAAGAAAACTTAGGTGTACATATAAAACGATATAA [XGTACX_site3118]	9.67
TATGAACACAGACACACACACAAAAAAAAAAAAAAA [CACACA_site7037]	9.9
ATTATCTTATGTTATTTATTTGTCCCACATTTGTTA [TGCATGCA_negctrl_site402]	9.73
CATACACCCAGACACACACACATATATATATATATA [CACACA_site634]	10.4
TTTTTGTTATTATGTGTGCACATATATATATATATA	10.4
TATGTTATTATTTGTACACACACATATATATCCTTG [CACACA_site5910]	10.7
AACAAATATCCCAAAAGTACACATATAAAAAAAAAA [XGTACX_site4126]	9.79
ATATATATATATATGGTGCATGAAAATTTACTTTGA	9.66
ATATACTCATTTAATACACACAAAGAGAAAATTAAT [CACACA_site1923]	9.75
GATATTTGTTCATATACACACTTTTGATAAAATATG [CACACA_site4807]	9.71
TTTTTTTTTTTTGGTAGTACATAATATTAATATAAT [XGTACX_site4422]	9.5
TATATTTTCCTGCAAACACACATATAAATGGGTAGA [CACACA_site4451]	9.61
TTTATATAATTTTTTTGTACATATATATGAATACAT [XGTACX_site2316]	9.74
TAATTTTTTTTTTTTTTTCATTCTTTTCCTTTGATT [CACACA_negctrl_site1365]	9.22
ATAGTACAACAGGTTCTTGACAAACAATATGAATGT [GTGCAC_negctrl_site442]	9.78
ACATATAAGATTATGTGTCCACAAAAAAATAAAACA [XGTACX_site2867]	9.68
TTTTTAATAACACTTTTGAAAAATAAAATAAAATAA [CACACA_negctrl_site821]	9.1
TTTTTTTATTATTCTTATATAAAAATTTTTTTTAAT [CACACA_negctrl_site159]	9.32
TTTTATGTTCTTAATGCACACTTATAAGTATCTTAT [CACACA_site4895]	9.86
CATATCTCAATTTATGCATGCAGGATTTTTCTAATA [TGCATGCA_site516]	9.57
TTTTTTTTTTTTTGGTGTACATTTATAAAAAAAAAA [XGTACX_site8368]	9.19
AATATGTACAGACATACACACATATATATATATATA [CACACA_site1222]	10.1
